The source of these data is article PMC5951972.

This assay has as its target T1, Human properdin (human), P27918.
T1 chain: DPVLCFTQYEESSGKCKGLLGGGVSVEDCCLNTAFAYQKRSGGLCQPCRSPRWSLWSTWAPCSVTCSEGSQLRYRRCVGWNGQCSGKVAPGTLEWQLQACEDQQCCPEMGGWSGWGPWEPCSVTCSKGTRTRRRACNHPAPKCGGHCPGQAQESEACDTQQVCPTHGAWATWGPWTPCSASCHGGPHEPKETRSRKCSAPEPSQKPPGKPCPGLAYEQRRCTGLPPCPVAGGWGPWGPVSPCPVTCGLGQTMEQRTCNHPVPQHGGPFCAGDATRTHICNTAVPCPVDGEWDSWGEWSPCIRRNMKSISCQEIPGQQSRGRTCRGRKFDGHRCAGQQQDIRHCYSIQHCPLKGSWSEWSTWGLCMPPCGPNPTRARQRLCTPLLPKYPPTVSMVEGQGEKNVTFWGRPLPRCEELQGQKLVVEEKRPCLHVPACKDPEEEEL
The experiment in a line: SEC. To be noted: remark: other sources report otherwise.

Values joined by “and” are separate entries in the source; they are usually repeats but may differ in a detail not shown here. Identical values can stand only once.

B1: Human properdin, P27918 28-469 (natural protein)
chain: DPVLCFTQYEESSGKCKGLLGGGVSVEDCCLNTAFAYQKRSGGLCQPCRSPRWSLWSTWAPCSVTCSEGSQLRYRRCVGWNGQCSGKVAPGTLEWQLQACEDQQCCPEMGGWSGWGPWEPCSVTCSKGTRTRRRACNHPAPKCGGHCPGQAQESEACDTQQVCPTHGAWATWGPWTPCSASCHGGPHEPKETRSRKCSAPEPSQKPPGKPCPGLAYEQRRCTGLPPCPVAGGWGPWGPVSPCPVTCGLGQTMEQRTCNHPVPQHGGPFCAGDATRTHICNTAVPCPVDGEWDSWGEWSPCIRRNMKSISCQEIPGQQSRGRTCRGRKFDGHRCAGQQQDIRHCYSIQHCPLKGSWSEWSTWGLCMPPCGPNPTRARQRLCTPLLPKYPPTVSMVEGQGEKNVTFWGRPLPRCEELQGQKLVVEEKRPCLHVPACKDPEEEEL
modifications: here or on the partner: glycosylated (as printed: glycosylated monomer, band at 55 kDa); glycosylated (as printed: glycosylated monomer, band at 55 kDa)
In general, stoichiometry N refers to the number of molecules, sites or subunits per partner or assembly. For B1, the stoichiometry N was 2 and 3.
